Experimental data: PubChem BioAssay AID624296 (National Center for Advancing Translational Sciences (NCATS), 2012)
Where “and” joins values, the source holds several entries; their conditions need not be identical. Equal values may be shown once. Screen size: about 350,000 compounds; about 9,900 (2.8%) were called active. This list was built around the results that the source calls inconclusive (neither active nor inactive); the mix of calls is not that of the screen. The call rests on the fitted dose curve; in most records, active means well fitted activation curve with a large enough effect; inconclusive means small, poorly fitted or top-dose-only effect; inactive means no such curve, though single readings can be large or run the other way. Where the call is inconclusive, the potency comes from a doubtful curve fit.

test: A quantitative high throughput screen for small molecules that induce DNA re-replication in MCF 10a normal breast cells.; further: nearly all actives have a fitted effect of over 50% in size; conditions: MCF 10A DNA re-replication, Hoechst nuclear intensity, 48 h; series mostly up to 46.1 µM
Potency means the concentration at half of the fitted maximal effect; tags describe the fitted curve by direction and shape.

Row | Compound | Potency
1 | O=S(=O)(CS(=O)(=O)c1ccc(Cl)cc1)c1ccc(Cl)cc1 | active: 20.6 µM
2 | COc1ccc(CNC(=O)COC(=O)/C=C/c2ccc(S(=O)(=O)N3CCOCC3)cc2)cc1 | inconclusive: 25.9 µM [activator, single point]
3 | Cc1c(C(=O)NC(C)CCc2ccccc2)cccc1[N+](=O)[O-] (stereo unspecified) | inactive
4 | O=S(=O)(NCCCN1CCOCC1)c1ccc2ccccc2c1 | inconclusive: 23.1 µM [activator, partial curve, poor fit]
5 | CCC(Oc1ccccc1)C(=O)NC1C(=O)N2C1SC(C)(C)C2C(=O)O (stereo unspecified) | inconclusive: 6.51 µM [activator, single point]
6 | CCCCN(C(=O)c1ccc(C)o1)c1c(N)n(CC(C)C)c(=O)[nH]c1=O | inactive
7 | Cc1cccc(C)c1NC(=O)CSCC(=O)c1ccc(O)c(O)c1 | inconclusive: 18.4 µM [activator, partial curve, poor fit]
8 | COc1ccc(NS(=O)(=O)c2ccc(SC)cc2)c(OC)c1 | inactive
9 | COc1ccc(/C=N/n2cnn(Cc3ccccc3Cl)c2=S)cc1 | inconclusive: 18.4 µM [activator, partial curve, poor fit]
10 | COc1ccc(C(=O)c2nc3c(n2O)CCCCC3)cc1 | inactive
11 | CC1CCCCN1CC(=O)Nc1ccccc1Sc1ccccc1 (stereo unspecified) | inconclusive: 18.4 µM [activator, single point]
12 | Cc1ccc(N=C2SC(C(=O)Nc3ccc(OC(F)(F)F)cc3)C(N)=C2C(=O)Nc2c(C)cc(C)cc2C)cc1 (stereo unspecified) | active: 3.66 µM
13 | CCn1c(SCC(=O)O)nc2sc3c(c2c1=O)CCC3 | inconclusive: 29.1 µM [activator, single point]
14 | O=C(CSc1nnc(CN2CCOCC2)n1-c1ccccc1)Nc1ccc(Cl)cc1 | inconclusive: 8.2 µM [activator, partial curve, poor fit]
15 | CC1=NN(c2ccccc2)C(=O)/C1=C/c1ccc[nH]1 | inconclusive: 23.1 µM [activator, partial curve, poor fit]
16 | CC(=NNC(=O)c1ccncc1)c1ccccc1O | active: 18.4 µM
17 | O=C1c2ccccc2C(=O)N1CCCSc1nc2ccccc2o1 | inconclusive: 18.4 µM [activator, partial curve, poor fit]
18 | COc1cc(/C=N/N=C(/C(=O)c2ccccc2)c2ccccc2)cc(OC)c1O | inconclusive: 20.6 µM [activator, single point]
19 | O=C(Cn1nc(C(F)F)cc1C1CC1)NCCC1=CCCCC1 | inconclusive: 29.1 µM [activator, single point]
20 | CC(C)(C)OC(=O)NC(CO)c1cn([C@@H](Cc2cc3ccccc3[nH]2)C(=O)N2CCN(C(=O)OC(C)(C)C)CC2)nn1 (stereo partly specified) | inconclusive: 32.6 µM [activator, partial curve, poor fit]
21 | COc1ccc(N(CC(=O)Nc2cccc(N(C)S(C)(=O)=O)c2)S(=O)(=O)c2ccc(F)cc2)cc1 | inactive
22 | CCOc1nc(NC2CCCC2)nc(N2CCC(C)CC2)n1 | inconclusive: 18.4 µM [activator, partial curve, poor fit]

Row | Compound | Potency
23 | Cc1ccc(C2(CCNS(=O)(=O)c3ccc(C)cc3)CCOC(C(C)C)C2)cc1 (stereo unspecified) | inconclusive: 29.1 µM [activator, single point]
24 | CC1CCC(C(C)C)C2=C1C(C#N)(C#N)C(C#N)(C#N)C(c1ccccc1)N2 (stereo unspecified) | inconclusive: 29.1 µM [activator, single point]
25 | CNC(=S)N(Cc1ccco1)Cc1cc2cc3c(cc2[nH]c1=O)OCCO3 | inconclusive: 18.4 µM [activator, partial curve, poor fit]
26 | C=C(C)C1CC=C(C)/C(=N/NC(=O)COc2ccccc2Cl)C1 (stereo unspecified) | inconclusive: 29.1 µM [activator, single point]
27 | CN=c1scc(-c2cccs2)n1/N=C/c1ccccc1O | active: 14.6 µM
28 | CN(CCC(=O)c1ccccc1)CCC(=O)c1ccccc1 | inconclusive: 29.1 µM [activator, single point]
29 | Clc1nc(Cl)c2ncn(-c3ccccc3)c2n1 | inconclusive: 23.1 µM [activator, single point]
30 | CC(C)(C)OC(=O)C[C@H]1C/C=C\C[C@@H](CC(=O)N(CCO)Cc2ccccc2)C(=O)N[C@H](Cc2c[nH]c3ccccc23)COC1=O | inconclusive: 29.1 µM [activator, single point]
31 | CC(C)(C)c1nnc(NC(=O)CN2C(=O)C3C4C=CC(C4)C3C2=O)s1 (stereo unspecified) | inconclusive: 29.1 µM [activator, partial curve, poor fit]
32 | CCNc1nc(SCC(=O)Nc2ccccc2)nc(N2CCOCC2)n1 | inconclusive: 29.1 µM [activator, single point]
33 | CCCC(=O)N(c1ccc(OCC)cc1)S(=O)(=O)c1ccc2c3c(cccc13)C(=O)N2C | inconclusive: 5.17 µM [activator, partial curve, poor fit]
34 | Cc1ccc(-n2nnnc2-c2cccs2)cc1[N+](=O)[O-] | inactive
35 | O=C(N/N=C/c1c[nH]c2ccccc12)c1cc(-c2ccc3ccccc3c2)n[nH]1 | active: 2.59 µM
36 | O=C1C=C(c2ccc3c(c2)OCO3)C[C@@H](c2ccc(F)cc2)C1 | inconclusive: 1.64 µM [activator, partial curve]
37 | Cc1ccc(-c2c[n+](Cc3ccc(Cl)c(Cl)c3)c3n2CCC3)cc1 | inconclusive: 29.1 µM [activator, single point]
38 | CCOc1ccccc1NC(=O)CSc1n[nH]c(=O)n1-c1ccccc1 | inactive
39 | Cn1cncc1C#Cc1c(C=O)n(C)c2ccccc12 | inconclusive: 16.4 µM [activator, partial curve, poor fit]
40 | CC(CCN1CCN=C1Nc1ccccc1)c1ccccc1 (stereo unspecified) | inconclusive: 1.84 µM [activator, single point]
41 | CCN(CC)C(=O)C(=O)Nc1ccc(F)c(Cl)c1 | inactive
42 | CCc1c(C)sc(NC(=S)N2CCN(S(C)(=O)=O)CC2)c1C(=O)OC | inactive
43 | N#C/C(=C\c1ccccc1O)C(=O)Nc1ccccn1 | inactive
44 | c1ccc2c(-c3[nH]ncc3CNCCCn3ncc4ccccc43)cccc2c1 | inconclusive: 16.4 µM [activator, single point]

Row | Compound | Potency
45 | COC(=O)c1cc(=O)n(-c2c(Cl)cc(C(F)(F)F)cc2Cl)[nH]1 | inconclusive: 20.6 µM [activator, single point]
46 | Nc1nc(CN2CCN(c3ccc(F)cc3)CC2)nc(N2CCCc3ccccc32)n1 | inconclusive: 25.9 µM [activator, partial curve]
47 | O=C(NCc1ccccc1)c1cccc(NC(=O)C2CCCC2)c1 | inconclusive: 6.51 µM [activator, single point]
48 | COc1ccc(N2CN=C3SCC(=O)N3C2)cc1 | inconclusive: 4.11 µM [activator, full curve, poor fit]
49 | COCCOC(=O)C1=C(C)NC(C)=C(C(=O)OC(C)C)C1c1cccc([N+](=O)[O-])c1 (stereo unspecified) | inconclusive: 1.88 µM [activator, partial curve, poor fit] and inconclusive: 10.3 µM [activator, partial curve, poor fit]
50 | Cc1cc(N2CCN(C)CC2)ccc1NC(=O)c1cccc(S(=O)(=O)N2CCc3ccccc3C2)c1 | inconclusive: 20.6 µM [activator, single point]
51 | COc1ccc(NC(=S)N(CCCN2CCC(C)CC2)Cc2cccs2)cc1Cl | inactive
52 | CC(C)CC(COCc1ccc(Cl)cc1)N1CCN(C(=O)c2ccc(C(F)(F)F)cc2)CCC1=O (stereo unspecified) | inconclusive: 18.4 µM [activator, partial curve]
53 | C[C@H](CO)N1C[C@H](C)[C@@H](CN(C)Cc2ccc3c(c2)OCO3)Oc2c(NC(=O)C3CCCCC3)cccc2C1=O | inconclusive: 20.6 µM [activator, single point]
54 | COC(=O)c1sc(NC(=S)NC(=O)c2ccccc2C)nc1C | inactive
55 | Cc1onc(-c2ccccc2)c1CNS(=O)(=O)c1ccccc1[N+](=O)[O-] | inconclusive: 0.231 µM [activator, full curve, poor fit]
56 | COc1ccc(-n2cnnc2SCc2cnc(-c3ccccc3)s2)cc1 | inactive
57 | Cc1ccc(-n2c(SCC(=O)NCc3ccco3)nc3sc4c(c3c2=O)CC(C)(C)SC4)cc1 | inconclusive: 15.8 µM [activator, partial curve, poor fit]
58 | COc1ccccc1N(CC(=O)NCCSCc1cccc(C)c1)S(=O)(=O)c1ccccc1 | active: 18.4 µM
59 | COc1ccc(CCN(C(=O)C(F)(F)F)C(C(=O)NC2CCCC2)c2cccs2)cc1OC (stereo unspecified) | inactive
60 | O=C(NCCCN1CCOCC1)c1cc(-c2ccc(Cl)s2)nc2ccccc12 | inconclusive: 20.6 µM [activator, single point]
61 | C=CCNc1sc(C(=O)c2cccs2)c(N)c1C#N | inconclusive: 23.1 µM [activator, single point]
62 | CCCCn1c(CN2CCN(c3cccc(Cl)c3)CC2)nc2c1c(=O)[nH]c(=O)n2C | inconclusive: 6.51 µM [activator, partial curve, poor fit]
63 | NC(=O)c1cc(N2C(=O)C=CC2=O)ccc1Cl | active: 18.4 µM
64 | CCCOC(=O)N[C@@H]1C(=O)N2C(C(=O)OCCC)=C(C)CS[C@H]12 | inactive
65 | CC(=O)N1CC(C)Oc2ccc(S(=O)(=O)NC(CC(=O)O)c3ccccc3C)cc21 (stereo unspecified) | inactive
66 | Cc1nc(NC(=O)COC(=O)c2ccc(CO)cc2)c(Cl)cc1Cl | inactive
